Test results published in PubChem BioAssay AID330 (DTP/NCI, 2004).
This continues a long series; more values of the same kind are listed elsewhere. Toxic doses and inconclusive results are not listed.

Tested on: P388 leukemia ip, CD2F1 mice, survival T/C
Test: NCI In Vivo Anticancer Drug Screen. Data for tumor model P388 Leukemia (intraperitoneal) in CD2F1 (CDF1) mice
Conditions: endpoint: median survival time, higher = longer survival
Method in brief: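 Mice carrying the transplanted tumor received test compound or vehicle. Survival was recorded in each group, and the value is the treated-group measurement divided by that of the vehicle-treated control group.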

Cc1[nH]c(=O)[nH]c(=O)c1N(CCF)CCCl
T/C (dose: 4.0 mg/kg/injection, schedule: Q03HX016 (ip), vehicle: acid diluted with saline): 97 % of control
T/C (dose: 14.0 mg/kg/injection, schedule: Q01DX009 (ip), vehicle: saline with Tween-80): 168 % of control
T/C (dose: 16.0 mg/kg/injection, schedule: Q01DX005 (ip), vehicle: Klucel (hydroxypropylcellulose) (HPC)): 165 % of control
T/C (dose: 16.0 mg/kg/injection, schedule: Q03HX016 (oral), vehicle: other): 92 % of control
T/C (dose: 32.0 mg/kg/injection, schedule: Q01DX005 (ip), vehicle: Klucel (hydroxypropylcellulose) (HPC)): 186 % of control
T/C (dose: 64.0 mg/kg/injection, schedule: Q01DX001 (ip), vehicle: acid diluted with saline): 97 % of control
T/C (dose: 64.0 mg/kg/injection, schedule: Q08DX002 (ip), vehicle: acid diluted with saline): 97 % of control
